For assay [1], the target named is T1, Swi2C (392–722 aa) (S. pombe) (UniProt Q10668).
T1 sequence: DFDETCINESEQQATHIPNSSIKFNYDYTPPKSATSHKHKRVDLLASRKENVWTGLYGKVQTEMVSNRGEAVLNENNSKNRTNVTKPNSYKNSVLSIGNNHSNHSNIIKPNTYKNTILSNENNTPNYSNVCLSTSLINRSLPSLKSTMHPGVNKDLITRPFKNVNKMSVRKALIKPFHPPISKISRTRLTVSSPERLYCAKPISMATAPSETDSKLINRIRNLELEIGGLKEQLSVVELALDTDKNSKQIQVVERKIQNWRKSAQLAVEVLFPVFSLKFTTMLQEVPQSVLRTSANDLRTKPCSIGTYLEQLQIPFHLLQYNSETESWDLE
The assay is described as follows: co-purification; His-SUMO-Swi2, -Swi2S, -Swi2C or -Swi2CS co-expressed with Swi5 in E. coli; Ni-NTA capture, SUMO tag cleaved by His-Ulp1, then ion-exchange and/or heparin columns and Superdex 200 gel filtration in R buffer with 200 mM NaCl. On the technique in general: In gel filtration, larger molecules generally elute earlier.

For assay [2], the target named is T2, Swi2CS (607–722 aa) (S. pombe) (UniProt Q10668).
T2 sequence: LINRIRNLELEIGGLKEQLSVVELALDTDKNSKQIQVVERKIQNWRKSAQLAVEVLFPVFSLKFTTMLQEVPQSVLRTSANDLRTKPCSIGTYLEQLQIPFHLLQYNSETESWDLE
The assay is described as above.

Assay [3] deals with T3, Swi2S (205–722 aa) (S. pombe) (UniProt Q10668).
T3 sequence: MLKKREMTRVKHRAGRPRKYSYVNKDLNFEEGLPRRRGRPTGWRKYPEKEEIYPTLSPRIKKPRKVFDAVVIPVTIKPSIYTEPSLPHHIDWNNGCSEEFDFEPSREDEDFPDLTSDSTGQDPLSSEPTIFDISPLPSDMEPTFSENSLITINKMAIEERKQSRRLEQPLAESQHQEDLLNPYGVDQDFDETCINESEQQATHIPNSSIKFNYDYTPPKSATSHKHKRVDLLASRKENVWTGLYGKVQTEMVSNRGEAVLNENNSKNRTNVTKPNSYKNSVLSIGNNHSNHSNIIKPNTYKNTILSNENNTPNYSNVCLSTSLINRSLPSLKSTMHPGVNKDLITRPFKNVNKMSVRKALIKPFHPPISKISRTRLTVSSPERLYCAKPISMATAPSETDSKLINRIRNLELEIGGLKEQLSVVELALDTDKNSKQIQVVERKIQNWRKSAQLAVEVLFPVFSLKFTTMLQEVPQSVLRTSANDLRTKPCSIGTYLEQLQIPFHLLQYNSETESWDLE
The assay is described as above.

Assay [4] has as its target T4, Swi2 (1–722 aa), co-expressed and purified with Swi5 (S. pombe) (UniProt Q10668).
T4 sequence: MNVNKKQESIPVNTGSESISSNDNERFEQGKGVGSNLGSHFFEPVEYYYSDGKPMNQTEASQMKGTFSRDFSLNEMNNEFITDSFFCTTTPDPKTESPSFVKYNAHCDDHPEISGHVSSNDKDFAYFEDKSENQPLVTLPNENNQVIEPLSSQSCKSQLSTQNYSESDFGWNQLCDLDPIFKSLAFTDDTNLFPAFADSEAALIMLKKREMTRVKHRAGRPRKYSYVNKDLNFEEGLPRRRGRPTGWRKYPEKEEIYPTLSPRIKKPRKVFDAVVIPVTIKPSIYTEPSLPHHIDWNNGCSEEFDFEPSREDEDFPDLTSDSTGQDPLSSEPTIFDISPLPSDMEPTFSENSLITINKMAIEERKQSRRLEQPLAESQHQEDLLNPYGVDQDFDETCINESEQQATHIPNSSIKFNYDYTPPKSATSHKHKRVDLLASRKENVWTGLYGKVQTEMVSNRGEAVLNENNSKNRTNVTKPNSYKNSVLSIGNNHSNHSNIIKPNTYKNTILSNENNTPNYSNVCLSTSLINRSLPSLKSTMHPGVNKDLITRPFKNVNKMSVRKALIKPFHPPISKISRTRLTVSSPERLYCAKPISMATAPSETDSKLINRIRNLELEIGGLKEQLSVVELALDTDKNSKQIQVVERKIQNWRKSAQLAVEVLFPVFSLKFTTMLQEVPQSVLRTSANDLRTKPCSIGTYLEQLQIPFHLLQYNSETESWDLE
Described as above.

Assay [5] has as its target T5, full-length Swi6 (S. pombe) (UniProt P40381).
T5 sequence: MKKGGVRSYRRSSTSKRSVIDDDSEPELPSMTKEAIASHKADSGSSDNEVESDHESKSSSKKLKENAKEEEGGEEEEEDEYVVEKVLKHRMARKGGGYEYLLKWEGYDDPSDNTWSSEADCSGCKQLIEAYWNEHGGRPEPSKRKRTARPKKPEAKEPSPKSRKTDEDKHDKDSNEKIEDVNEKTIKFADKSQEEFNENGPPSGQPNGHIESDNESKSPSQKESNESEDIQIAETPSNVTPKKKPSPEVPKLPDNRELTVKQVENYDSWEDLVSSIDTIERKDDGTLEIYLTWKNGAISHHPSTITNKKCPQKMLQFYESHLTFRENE
Nature of the assay: two-hybrid; yeast two-hybrid in S. cerevisiae; Swi2 derivatives in pGADT7 against Swi6; spot tests on 2DO (SD-leu -trp, control), 3DO (HIS3 reporter) and 4DO (HIS3 and ADE2 reporters) dropout plates.

Substitutions are numbered along the chain they refer to. Numbers in names are those of the source. No constants are given. Whether binding was seen depends on the method and setting. Some entries that bind do so weakly or less than the wild type.

B1: Swi5 (protein, UniProt Q9UUB7 1-85)
chain: MEKSQLESRVHLLEQQKEQLESSLQDALAKLKNRDAKQTVQKHIDLLHTYNEIRDIALGMIGKVAEHEKCTSVELFDRFGVNGSE
Take B1: the binding entry in assay [1], in assay [2], in assay [3] and in assay [4] was “binds” in each case.

B2: Swi2 (1–260) truncation mutant (domain or fragment, UniProt Q10668 1-260)
chain: MNVNKKQESIPVNTGSESISSNDNERFEQGKGVGSNLGSHFFEPVEYYYSDGKPMNQTEASQMKGTFSRDFSLNEMNNEFITDSFFCTTTPDPKTESPSFVKYNAHCDDHPEISGHVSSNDKDFAYFEDKSENQPLVTLPNENNQVIEPLSSQSCKSQLSTQNYSESDFGWNQLCDLDPIFKSLAFTDDTNLFPAFADSEAALIMLKKREMTRVKHRAGRPRKYSYVNKDLNFEEGLPRRRGRPTGWRKYPEKEEIYPTL
Consider B2, for which, in assay [5], the binding result is “no binding”.

B3: Swi2 full-length (pGADT7-Swi2 full-length) (protein, UniProt Q10668 1-722)
chain: T4 sequence
Regarding B3, the binding result in assay [5] was “binds”.

B4: Swi2-V274A (protein, UniProt Q10668 1-722)
chain: T4 sequence with V274A
With B4, the binding entry in assay [5] was “no binding”.

B5: Swi2 (1–280) truncation mutant (domain or fragment, UniProt Q10668 1-280)
chain: MNVNKKQESIPVNTGSESISSNDNERFEQGKGVGSNLGSHFFEPVEYYYSDGKPMNQTEASQMKGTFSRDFSLNEMNNEFITDSFFCTTTPDPKTESPSFVKYNAHCDDHPEISGHVSSNDKDFAYFEDKSENQPLVTLPNENNQVIEPLSSQSCKSQLSTQNYSESDFGWNQLCDLDPIFKSLAFTDDTNLFPAFADSEAALIMLKKREMTRVKHRAGRPRKYSYVNKDLNFEEGLPRRRGRPTGWRKYPEKEEIYPTLSPRIKKPRKVFDAVVIPVTI
Regarding B5, in assay [5], the binding result is reported as “binds”.

The values above are taken from article PMC10164574, “Fission yeast Swi2 designates cell-type specific donor and stimulates Rad51-driven strand exchange for mating-type switching”.
